The results in this text go back to ChEMBL document CHEMBL4888484, “Replenishing the malaria drug discovery pipeline: Screening and hit evaluation of the MMV Hit Generation Library 1 (HGL1) against asexual blood stage Plasmodium falciparum ,using a nano luciferase reporter read-out” (2022).

Screen size: about 150,000 compounds; about 540 (0.36%) showed an effect of 50% or more. This is one part of the list.

This assay has as its system Plasmodium falciparum. Kind of assay: Primary screen in NF54 nanoGlo assay, in single point, at 2uM, 72h; a lower Z score goes with more inhibition. Format: functional, Erythrocyte. Conditions: timepoint 72 hour.
As to `C[C@H]1CN(C(=O)c2cnn(-c3cccc(Br)c3)c2)c2cccnc2O1`, the “% Inhibition” value is recorded as -3% and the Z score is recorded as 0.5.
With `CCOc1cccc(NS(=O)(=O)c2ccnn2C2CCC2)n1`, the “% Inhibition” value is -7% and the Z score came out at 0.79.
`N[C@@H]1CCN(C(=O)C2CC2c2cccc(F)c2)C1` (some centres undefined): the “% Inhibition” value was -7% and the Z score was 1.
For `O=S(=O)(c1ccccc1F)N1CCc2oncc2C1`, the “% Inhibition” value is -14% and the Z score was determined as 2.14.
On the same counts, the results for `O=C(c1ccnc(C2CC2)n1)N1CCc2[nH]c3ccc(F)cc3c2C1` are -10% and 1.37.
Turning to `COC(=O)c1cc(NCc2c[nH]nc2-c2cccnc2)ccc1C`, the “% Inhibition” value came out at 32% and the Z score is -3.62.
Consider `Cc1c(C(C)N[C@@H]2C=C[C@H](CO)C2)cnc2ccnn12` (some centres undefined), for which the “% Inhibition” value was -6% and the Z score was 0.75.
For `Cc1n[nH]cc1-c1ccc(-c2csc(N)n2)s1`, the “% Inhibition” value is reported as -2% and the Z score was determined as 0.43.
On the same counts, the results for `O=C(Nc1cccc(-c2cccnc2)c1)N1CCOC[C@@H](CO)C1` are -14% and 1.92.
Take `O=C(NCc1cccc(Cl)c1)c1cc(N2CCOCC2)nc2ccccc12`: the “% Inhibition” value was 6% and the Z score is listed as -0.87.
For the compound `Cc1cccc([C@H](CNC(=O)c2[nH]cnc2C)N(C)C)c1`, the “% Inhibition” value is -5% and the Z score worked out at 0.73.
In the case of `c1ccc(Cc2noc(CN3CCC4(CC3)OCCO4)n2)cc1`, the “% Inhibition” value is listed as -2% and the Z score was found to be 0.31.
For `CCCC1(C2CCN(C(=O)c3ccccc3N(C)C)CC2)NC(=O)N(CC2CCCO2)C1=O` (centres undefined), the “% Inhibition” value is recorded as 1% and the Z score is on record as -0.14.
The corresponding values for `COc1cc(N2CCC(c3nnc(Cn4cncn4)n3C)CC2)nc(N)n1` are 6% and -0.83.
As to `O=C(NCCn1nnc2cc(S(=O)(=O)N3CCCC3)ccc21)Nc1ccccc1`, the “% Inhibition” value is listed as 33% and the Z score was -3.77.
Take `Cc1ccc(Nc2n[nH]c(N)c2S(=O)(=O)c2ccccc2)cc1`: the “% Inhibition” value turned out to be 31% and the Z score is recorded as -3.55.
Turning to `Cc1cc(C(=O)N2CCC(F)(C(=O)N3CCOCC3)CC2)nn1C`, the “% Inhibition” value was -12% and the Z score was determined as 1.58.
The corresponding values for `CC(=O)Nc1cccc(NC(=O)CNC(C2CCCC2)C2CCCC2)c1` are 6% and -0.73.
The corresponding values for `CS(=O)(=O)N1CC(C(=O)Nc2ccc3c(c2)OCO3)C1` are -5% and 0.77.
The corresponding values for `COCC1CCN(S(=O)(=O)N2CCCC[C@@H]2CCc2ccccc2)CC1` are -13% and 1.5.
Consider `C[C@@H]1Oc2ccc(NC(=O)C3(c4ccc(F)cc4)CCC3)cc2NC1=O`, for which the “% Inhibition” value is -7% and the Z score amounted to 1.1.
Take `C[C@H](Nc1ccc(N2CCCC2)c(F)c1)c1nc(C2CC2)no1`: the “% Inhibition” value is reported as -15% and the Z score is listed as 2.74.
`O=C(c1ccc(Cl)cc1)N1CCCN(c2nc3ccccc3c3nnc(-c4ccccc4Cl)n23)CC1`: the “% Inhibition” value worked out at 7% and the Z score was -0.65.
The corresponding values for `CCCN(C[C@H]1CCCO1)C(=O)c1cc2ccccc2n1C` are -4% and 0.57.
The corresponding values for `COc1cccc(C(=O)NCC(=O)N2CCC3(CCOCC3)C2)c1` are -1% and 0.13.
Turning to `Cc1cc(CN=C(N)N[C@@H](C)c2ccc(Cl)cc2Cl)no1`, the “% Inhibition” value was -6% and the Z score worked out at 0.87.
As for `COCC1(CNS(=O)(=O)c2ccccc2)CCC1`, the “% Inhibition” value is 6% and the Z score is recorded as -0.8.
With `CCOc1ncccc1CNC(=O)c1ccnc(-n2cnnc2)c1`, the “% Inhibition” value is recorded as -3% and the Z score was 0.48.
The corresponding values for `Cc1ccc2c(n1)OCCN2Cc1nccs1` are -10% and 1.41.
In the case of `Cc1cc(C)nc(-n2nc(-c3ccc(Cl)cc3)c3c2NC(=O)C[C@@H]3c2ccc3c(c2)OCO3)n1`, the “% Inhibition” value is listed as 31% and the Z score was -0.26.
Consider `c1ccc(CN2CCN(CCN3CCO[C@H]4CCCC[C@@H]43)CC2)cc1`, for which the “% Inhibition” value is given as -3% and the Z score is reported as 0.37.
On the same counts, the results for `CCc1nc(CN2CCc3cncnc3C2)no1` are -13% and 2.27.
For the compound `CCCNC(=O)N1CCC[C@@]2(CCC(=O)N(Cc3cccnc3)C2)C1`, the “% Inhibition” value is on record as -7% and the Z score was determined as 1.21.
The corresponding values for `Cc1ccc(-c2cn[nH]c2[C@H]2CCCN(C(=O)c3noc(C)c3CO)C2)cc1` are -14% and 2.78.
For the compound `COCC(=O)N1CCC(C(=O)N(C)[C@@H](C)c2cc(-c3ccccc3)[nH]n2)CC1`, the “% Inhibition” value is recorded as 25% and the Z score is -3.42.
On the same counts, the results for `CCc1oc2c(NC(=O)N[C@H]3CCCNC3=O)cc(Cl)cc2c1C` are 3% and -0.58.
For the compound `CCOC(=O)N1CCN(C(=O)c2cn3ccnc(-c4ccc(OC)cc4)c3n2)CC1`, the “% Inhibition” value is -4% and the Z score is recorded as 0.68.
In the case of `Cc1nc(N2CCC[C@H]2c2nncn2C)c2cnn(C)c2n1`, the “% Inhibition” value is -5% and the Z score was 0.87.
On the same counts, the results for `CCOc1ccc(-c2cc(C(=O)Nc3ccccc3C(=O)c3ccccc3)no2)cc1` are 4% and -0.51.
On to `O=C(Cn1c(-c2ccco2)nn(-c2ccc(Cl)cc2)c1=O)NCCCO`, for which the “% Inhibition” value is -8% and the Z score is listed as 1.64.
Regarding `C=C(C)C[C@H](C)C(=O)Nc1cc2sc(=O)n(C)c2cc1C`, the “% Inhibition” value is recorded as -3% and the Z score is recorded as 0.46.
With `Cc1cc(NC(=O)CN2CCC(n3nc(C(F)(F)F)n(C)c3=O)CC2)no1`, the “% Inhibition” value was -12% and the Z score is listed as 1.32.
